{
  "source": "patent US20210252104A1",
  "about": "“ANTIBACTERIAL PEPTIDE MONOMERS AND COMBINATIONS FOR CO-THERAPY” (ARREVUS, INC., priority 2018, published 2021)",
  "test_system": "E. coli 5770",
  "assay": "Mice challenged ip with E. coli 5770, blood bacterial counts",
  "conditions": "of 3 mice",
  "note": "Non-standard residues stand in square brackets, D forms with d. Residues, ends and D or L forms follow the SMILES beside them. Ac6c = NC1(C(=O)O)CCCCC1",
  "data": [
    {"smiles": "CC(C)C[C@H](NC(=O)[C@H](Cc1ccc(O)cc1)NC(=O)[C@@H]1CCCN1C(=O)[C@H](CCCNC(=N)N)NC(=O)[C@@H]1CCCN1C(=O)[C@H](CCCCN)NC(=O)[C@H](CC(=O)O)NC(=O)[C@@H]1CCCN1C(=O)[C@H](CCCNC(=N)N)NC(=O)C1(N)CCCCC1)C(=O)N1CCC[C@H]1C(=O)N[C@@H](CCCNC(=N)N)C(=O)N1CCC[C@H]1C(=O)N[C@@H](CCCNC(=N)N)C(=O)N1CCC[C@H]1C(=O)N1CCC[C@H]1C(=O)N[C@@H](CCCNC(=N)N)C(=O)N1CCC[C@H]1C(=O)N[C@H](C(=O)N[C@@H](CCCNC(=N)N)C(N)=O)C(C)C", "note": "[Example 1, Chex-RPDKPRPYLPRPRPPRPVR-NH2] (H-[Ac6c]RPDKPRPYLPRPRPPRPVR-NH2)", "values": [
      {"measurement": "Number of animals with bacterial counts below the detection limit of 1,000 CFU/mL", "setting": "2.5 mg/kg ip, 8 h", "result": "(0/3)"},
      {"measurement": "Number of animals with bacterial counts below the detection limit of 1,000 CFU/mL", "setting": "2.5 mg/kg ip, 12 h", "result": "(1/3)"},
      {"measurement": "Number of animals with bacterial counts below the detection limit of 1,000 CFU/mL", "setting": "2.5 mg/kg ip, 16 h", "result": "(1/3)"},
      {"measurement": "Number of animals with bacterial counts below the detection limit of 1,000 CFU/mL", "setting": "2.5 mg/kg ip, 24 h", "result": "(1/3)"},
      {"measurement": "Number of animals with bacterial counts below the detection limit of 1,000 CFU/mL", "setting": "5 mg/kg ip, 8 h", "result": "(0/3)"},
      {"measurement": "Number of animals with bacterial counts below the detection limit of 1,000 CFU/mL", "setting": "5 mg/kg ip, 12 h", "result": "(0/3)"},
      {"measurement": "Number of animals with bacterial counts below the detection limit of 1,000 CFU/mL", "setting": "5 mg/kg ip, 16 h", "result": "(2/3)"},
      {"measurement": "Number of animals with bacterial counts below the detection limit of 1,000 CFU/mL", "setting": "5 mg/kg ip, 24 h", "result": "(3/3)"},
      {"measurement": "Number of animals with bacterial counts below the detection limit of 1,000 CFU/mL", "setting": "10 mg/kg ip, 8 h", "result": "(0.3)"},
      {"measurement": "Number of animals with bacterial counts below the detection limit of 1,000 CFU/mL", "setting": "10 mg/kg ip, 12 h", "result": "(0.3)"},
      {"measurement": "Number of animals with bacterial counts below the detection limit of 1,000 CFU/mL", "setting": "10 mg/kg ip, 16 h", "result": "(3/3)"},
      {"measurement": "Number of animals with bacterial counts below the detection limit of 1,000 CFU/mL", "setting": "10 mg/kg ip, 24 h", "result": "(3/3)"}
    ]}
  ]
}
